Experimental findings from paper PMC7994375 (2021) are described below.

B1: Human Melanocortin-4 Receptor (MC4R) WT, NanoBiT constructs (MC4R WT-LgBiT; MC4R WT-SmBiT) [human] / Human Gαs-C-SmBiT [human] (parent complex)
chain 1: MVNSTHRGMHTSLHLWNRSSYRLHSNASESLGKGYSDGGCYEQLFVSPEVFVTLGVISLLENILVIVAIAKNKNLHSPMYFFICSLAVADMLVSVSNGSETIVITLLNSTDTDAQSFTVNIDNVIDSVICSSLLASICSLLSIAVDRYFTIFYALQYHNIMTVKRVGIIISCIWAACTVSGILFIIYSDSSAVIICLITMFFTMLALMASLYVHMFLMARLHIKRIAVLPGTGAIRQGANMKGAITLTILIGVFVVCWAPFFLHLIFYISCPQNPYCVCFMSHFNLYLILIMCNSIIDPLIYALRSQELRKTFKEIICCYPLGGLCDLSSRY
chain 2: MGCLGNSKTEDQRNEEKAQREANKKIEKQLQKDKQVYRATHRLLLLGAGESGKSTIVKQMRILHVNGFNGEGGEEDPQAARSNSDGEKATKVQDIKNNLKEAIETIVAAMSNLVPPVELANPENQFRVDYILSVMNVPDFDFPPEFYEHAKALWEDEGVRACYERSNEYQLIDCAQYFLDKIDVIKQADYVPSDQDLLRCRVLTSGIFETKFQVDKVNFHMFDVGGQRDERRKWIQCFNDVTAIIFVVASSSYNMVIREDNQTNRLQEALNLFKSIWNNRWLRTISVILFLNKQDLLAEKVLAGKSKIEDYFPEFARYTTPEDATPEPGEDPRVTRAKYFIRDEFLRISTASGDGRHYCYPHFTCAVDTENIRRVFNDCRDIIQRMHLRQYELL

In the test the parent is B1. Nature of the test: NanoBiT enzyme complementation assay; read off a plot.
For chain 1 T112M, the screen value is ~-0.5 loge(mutant/WT).

chain 1 R236C: the screen value was ~-1.5 loge(mutant/WT).

As to chain 1 I251L, the screen value was ~0.35 loge(mutant/WT).

On to chain 1 T11A, for which the screen value was ~-0.5 loge(mutant/WT).

Turning to chain 1 G231S, the screen value was ~-0.45 loge(mutant/WT).

As to chain 1 T232S, the screen value is ~-0.8 loge(mutant/WT).

As to chain 1 L325F, the screen value is ~-0.9 loge(mutant/WT).

Take chain 1 S295P: the screen value is ~-0.7 loge(mutant/WT).

Take chain 1 V103I: the screen value was ~0.85 loge(mutant/WT).

Turning to chain 1 S30F, the screen value was ~-0.25 loge(mutant/WT).

With chain 1 C326R, the screen value was ~-0.85 loge(mutant/WT).

As to chain 1 T53I, the screen value was ~0.35 loge(mutant/WT).

In the case of chain 1 S191T, the screen value is ~0.65 loge(mutant/WT).

In the case of chain 1 M200V, the screen value is ~-0.65 loge(mutant/WT).

Regarding chain 1 R305S, the screen value is ~-0.1 loge(mutant/WT).

chain 1 N240S: the screen value was ~0.95 loge(mutant/WT).

As for chain 1 L304F, the screen value was ~0.1 loge(mutant/WT).

As for chain 1 G238D, the screen value was ~-0.05 loge(mutant/WT).

Consider chain 1 G34A, for which the screen value was ~-0.2 loge(mutant/WT).
